Measured values taken from PubChem BioAssay (NCATS).
Several values for one entry are separate records, joined by “and”; a condition that tells them apart may be missing. Equal entries are not always repeated. The list shows a part of the results. These are further read-outs of the screen, such as a control signal, another cell line or another target. No call is given for them. Compounds called inactive in the main read-out are mostly missing here. Potencies come from curve fits of mixed quality, noted in brackets.
Tags tell the direction and shape of the fitted curve.

Assay: qHTS Assay for Lipid Storage Modulators (AID 1519)
Conditions: Drosophila S3 cells, BODIPY lipid droplet/cell ratio, laser cytometry; measured here: cell number channel AC50; cells loaded with oleic acid
Summary of the method: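 Cells seeded at 5,000 per well were treated with compounds over a concentration series and loaded with oleic acid (400 uM, as added). Lipid droplet fluorescence (488 nm excitation, 500-530 nm channel) was read by laser-scanning cytometry and normalized to 20 uM Triacsin C.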
In the case of `COc1ccc(NC(=O)/C=C/c2ccc(Cl)cc2)cc1`, the AC50 is reported as 7.94 µM [falling, full curve].
In the case of `OC[C@H]1O[C@@H](n2cnc3cncnc32)[C@H](O)[C@@H]1O`, the AC50 is reported as 3.16 µM [falling, full curve, poor fit].
In the case of `CN1CCN(CCCN2c3ccccc3Sc3ccc(C(F)(F)F)cc32)CC1`, the AC50 is reported as 31.6 µM [falling, partial curve, poor fit].
In the case of `CC(=O)SC1CC2=CC(=O)CC[C@]2(C)C2CC[C@@]3(C)[C@@H](CC[C@@]34CCC(=O)O4)C12` (stereo partly drawn), the AC50 is reported as 0.126 µM [falling, full curve, poor fit].
With `COC(=O)Nc1nc2ccc(C(=O)c3cccs3)cc2[nH]1` the AC50 was 0.447 µM [rising, full curve, poor fit].
For `NCC(O)C1CCCCCCC1` (stereo not drawn), the AC50 was 1.58 µM [falling, full curve].
With `C[C@H]1c2cccc(O)c2C(O)=C2C(=O)[C@]3(O)C(O)=C(C(N)=O)C(=O)C(N(C)C)[C@@H]3[C@@H](O)C21` (stereo partly drawn) the AC50 was 7.94 µM [falling, full curve, poor fit].
For `CCOC(=O)N1CCC(=C2c3ccc(Cl)cc3CCc3cccnc32)CC1`, the AC50 was 39.8 µM [falling, single point].
For `O=c1cc(-c2ccc(O)cc2)oc2cc(O)cc(O)c12`, the AC50 was 35.5 µM [rising, partial curve, poor fit].
In the case of `CCCCOc1cc(CC2CNC(=O)N2)ccc1OC` (stereo not drawn), the AC50 is reported as 39.8 µM [rising, single point].
In the case of `CC(=O)OCC1=C(C(=O)O)N2C(=O)[C@@H](NC(=O)Cc3cccs3)[C@H]2SC1`, the AC50 is reported as 39.8 µM [rising, single point].
For `O=C1C(SCCO)=C(SCCO)C(=O)c2ccccc21`, the AC50 was 39.8 µM [falling, partial curve, poor fit] and 8.91 µM [falling, full curve, poor fit].
For `CC(=O)[C@]1(O)Cc2c(O)c3c(c(O)c2[C@@H](O[C@H]2C[C@H](N)[C@H](O)[C@H](C)O2)C1)C(=O)c1ccccc1C3=O`, the AC50 was 17.8 µM [falling, full curve, poor fit].
For `COC1=C(OC)C(=O)c2ccccc2C1=O`, the AC50 was 7.94 µM [falling, partial curve, poor fit].
With `CN(C)CCCN1c2ccccc2Sc2ccc(C(F)(F)F)cc21` the AC50 was 3.16 µM [falling, full curve, poor fit].
For `CC/C(=C(\c1ccccc1)c1ccc(OCCN(C)C)cc1)c1ccccc1`, the AC50 was 31.6 µM [rising, partial curve, poor fit] and 28.2 µM [falling, partial curve, poor fit].
In the case of `NCCCS(=O)(=O)O`, the AC50 is reported as 39.8 µM [rising, single point].
For `C[C@]12CC[C@@H]3c4ccc(O)cc4CC[C@H]3[C@@H]1CCC2=O`, the AC50 was 7.94 µM [falling, full curve, poor fit].
For `CC(C)(Sc1ccc(CCN(CCCCC2CCCCC2)C(=O)NC2CCCCC2)cc1)C(=O)O`, the AC50 was 35.5 µM [rising, single point].
With `COc1cc2ncnc(Nc3cccc(Cl)c3)c2cc1OC` the AC50 was 1.78 µM [rising, full curve, poor fit] and 31.6 µM [falling, partial curve, poor fit].
In the case of `CC(C)c1ccc2c(c1)c(SC(C)(C)C)c(CC(C)(C)C(=O)O)n2Cc1ccc(Cl)cc1`, the AC50 is reported as 7.94 µM [falling, full curve, poor fit].
With `Oc1ccc(/C=C/c2cc(O)cc(O)c2)cc1` the AC50 was 15.8 µM [rising, full curve, poor fit].
In the case of `Oc1ccc(-c2nc(-c3ccc(F)cc3)c(-c3ccncc3)[nH]2)cc1`, the AC50 is reported as 3.16 µM [rising, full curve].
With `C[n+]1cc2c3c(ccc2c2ccc4cc5c(cc4c21)OCO5)OCO3` the AC50 was 15.8 µM [falling, partial curve] and 7.94 µM [falling, full curve, poor fit].
In the case of `Oc1cc(O)cc(/C=C/c2ccc(O)c(O)c2)c1`, the AC50 is reported as 28.2 µM [rising, partial curve, poor fit].
With `Fc1ccc(C(c2ccc(F)cc2)N2CCN(C/C=C/c3ccccc3)CC2)cc1` the AC50 was 11.2 µM [falling, full curve, poor fit].
In the case of `O=C1c2c(O)ccc(O)c2C(=O)c2c(NCCNCCO)ccc(NCCNCCO)c21`, the AC50 is reported as 2.51 µM [falling, partial curve, poor fit].
For `O=C(Nc1ccc([N+](=O)[O-])cc1Cl)c1cc(Cl)ccc1O`, the AC50 was 7.08 µM [falling, full curve, poor fit] and 3.16 µM [falling, single point] and 14.1 µM [falling, partial curve, poor fit].
